# Measured values published in the supplement of paper PMC8728848.
# The other results are listed elsewhere or left out.
# B1: PX15618A-bth-503-24-503 (Bacteroides thetaiotaomicron) (protein)
# chain: NKSEDKLSGDDFWAQGNETNAEAFLLSIYNSFRNATMSQRPFLTYSGDMRCAPITAYSTGDKYVAYLANNDMGELRNTYPDDARGGLIMQWDVFYTAIQDANILLAEIDKVPGMDELKRSRFKAEAIFMRSLSYFFIVRAFGDVPYYTNAYNEAPLPRTNMVIVLQNCLADLQPLLDDDPGAEVLPWSYSSYSSKGIRASRGSVIALMMHINLWLVQFDAQNKEQYYRNVVSLGEELERNNGAYSLLDINRSSVIFAGGSDEGLFEIAQNINFNEIFMMNAKFSDNVSYSCLNKSMPLFCYSGDYLMTLFPMYEDDARKELWFDEKIYSTSVSSSAPKEIKKFWNIDTYGNGTITSNSGNQIVFRYAGALLLYAEALAALGTNDTKACELLNRVRNRAHASEINTSGSELMDAIFWERCRELIGEGHYYYDLVRTGKVYNRNYCMNPMTRTNFNVGAWTWPIHRNALKNNTQIGLNLFWE
# Key:
# Test in all cases: glycan array binding signal (z-score within array); higher = stronger binding
# Details in all cases: glycan notation: IUPAC condensed, linker removed
# [1] = biological target: Fuc(a1-3)GlcNAc
# How it was run: (§1)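 Glycan array binding is given as a within-array Z-score, which can be read as non-binding when negative. The arrays, 3228 of them, came from the Consortium for Functional Glycomics database and were retained only where the protein sequence was available. Z-scores were averaged across arrays of the same protein sequence at different concentrations or buffers and across linkers.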
# [2] = biological target: Fuc(a1-3)[Gal(b1-4)]Glc6S
# How it was run: as §1
# [3] = biological target: Fuc(a1-3)[Gal(b1-4)]GlcNAc
# How it was run: as §1
# [4] = biological target: Fuc(a1-3)[Gal(b1-4)]GlcNAc(b1-2)Man
# How it was run: as §1
# [5] = biological target: Fuc(a1-3)[Gal(b1-4)]GlcNAc(b1-2)Man(a1-3)[Fuc(a1-3)[Gal(b1-4)]GlcNAc(b1-2)Man(a1-6)]Man(b1-4)GlcNAc(b1-4)GlcNAc
# How it was run: as §1
# [6] = biological target: Fuc(a1-3)[Gal(b1-4)]GlcNAc(b1-2)Man(a1-3)[Fuc(a1-3)[Gal(b1-4)]GlcNAc(b1-2)Man(a1-6)]Man(b1-4)GlcNAc(b1-4)[Fuc(a1-6)]GlcNAc
# How it was run: as §1
# [7] = biological target: Fuc(a1-3)[Gal(b1-4)]GlcNAc(b1-3)Gal(b1-3)[Fuc(a1-4)]GlcNAc
# How it was run: as §1
# [8] = biological target: Fuc(a1-3)[Gal(b1-4)]GlcNAc(b1-3)Gal(b1-4)[Fuc(a1-3)]GlcNAc
# How it was run: as §1
# [9] = biological target: Fuc(a1-3)[Gal(b1-4)]GlcNAc(b1-3)Gal(b1-4)[Fuc(a1-3)]GlcNAc(b1-3)Gal(b1-4)[Fuc(a1-3)]GlcNAc
# How it was run: as §1
# [10] = biological target: Fuc(a1-3)[Gal(b1-4)]GlcNAc(b1-3)GalNAc
# How it was run: as §1
# [11] = biological target: Fuc(a1-3)[Gal(b1-4)]GlcNAc(b1-6)GalNAc
# How it was run: as §1
# [12] = biological target: Fuc(a1-3)[Gal(b1-4)]GlcNAc(b1-6)[Gal(b1-3)GlcNAc(b1-3)]Gal(b1-4)Glc
# How it was run: as §1
# [13] = biological target: Fuc(a1-3)[Gal(b1-4)]GlcNAc6S
# How it was run: as §1
# [14] = biological target: Fuc(a1-3)[Gal3S(b1-4)]Glc
# How it was run: as §1
# [15] = biological target: Fuc(a1-3)[Gal3S(b1-4)]GlcNAc
# How it was run: as §1
# [16] = biological target: Fuc(a1-3)[Gal3S(b1-4)]GlcNAc6S
# How it was run: as §1
# [17] = biological target: Fuc(a1-3)[GalNAc(b1-4)]GlcNAc
# How it was run: as §1
# [18] = biological target: Fuc(a1-3)[GalNAc(b1-4)]GlcNAc6S
# How it was run: as §1
# [19] = biological target: Fuc(a1-4)GlcNAc
# How it was run: as §1
# [20] = biological target: Fuc(b1-3)GlcNAc
# How it was run: as §1
# [21] = biological target: Gal(a1-2)Gal
# How it was run: as §1
# [22] = biological target: Gal(a1-3)Gal
# How it was run: as §1
# [23] = biological target: Gal(a1-3)Gal(b1-3)GlcNAc
# How it was run: as §1
# [24] = biological target: Gal(a1-3)Gal(b1-3)GlcNAc(b1-2)Man
# How it was run: as §1
# [25] = biological target: Gal(a1-3)Gal(b1-3)GlcNAc(b1-2)Man(a1-3)[Gal(a1-3)Gal(b1-3)GlcNAc(b1-2)Man(a1-6)]Man(b1-4)GlcNAc(b1-4)GlcNAc
# How it was run: as §1
# [26] = biological target: Gal(a1-3)Gal(b1-3)GlcNAc(b1-3)GalNAc
# How it was run: as §1
# [27] = biological target: Gal(a1-3)Gal(b1-3)GlcNAc(b1-6)GalNAc
# How it was run: as §1
# [28] = biological target: Gal(a1-3)Gal(b1-3)[Fuc(a1-4)]GlcNAc(b1-2)Man(a1-3)[Gal(a1-3)Gal(b1-3)[Fuc(a1-4)]GlcNAc(b1-2)Man(a1-6)]Man(b1-4)GlcNAc(b1-4)GlcNAc
# How it was run: as §1
# [29] = biological target: Gal(a1-3)Gal(b1-4)Glc
# How it was run: as §1
# [30] = biological target: Gal(a1-3)Gal(b1-4)GlcNAc
# How it was run: as §1
binder,measurement,setting,value
B1,glycan array binding signal (z-score),[1],-0.381
same,glycan array binding signal (z-score),[2],1.64
same,glycan array binding signal (z-score),[3],0.234
same,glycan array binding signal (z-score),[4],-0.455
same,glycan array binding signal (z-score),[5],-0.28
same,glycan array binding signal (z-score),[6],-0.266
same,glycan array binding signal (z-score),[7],-0.114
same,glycan array binding signal (z-score),[8],-0.341
same,glycan array binding signal (z-score),[9],-0.064
same,glycan array binding signal (z-score),[10],-0.5
same,glycan array binding signal (z-score),[11],-0.385
same,glycan array binding signal (z-score),[12],-0.745
same,glycan array binding signal (z-score),[13],-0.893
same,glycan array binding signal (z-score),[14],-0.486
same,glycan array binding signal (z-score),[15],-0.676
same,glycan array binding signal (z-score),[16],-0.697
same,glycan array binding signal (z-score),[17],0.302
same,glycan array binding signal (z-score),[18],-0.803
same,glycan array binding signal (z-score),[19],0.724
same,glycan array binding signal (z-score),[20],-0.384
same,glycan array binding signal (z-score),[21],-0.293
same,glycan array binding signal (z-score),[22],0.035
same,glycan array binding signal (z-score),[23],0.517
same,glycan array binding signal (z-score),[24],-0.573
same,glycan array binding signal (z-score),[25],1.26
same,glycan array binding signal (z-score),[26],-0.186
same,glycan array binding signal (z-score),[27],-0.284
same,glycan array binding signal (z-score),[28],6.49
same,glycan array binding signal (z-score),[29],-0.271
same,glycan array binding signal (z-score),[30],-0.019
